# PubChem BioAssay AID445 (National Center for Advancing Translational Sciences (NCATS), 2006)
# The campaign covered roughly 110,000 compounds. About 40 (0.04%) were called active. This list was built around the results that the source calls inconclusive (neither active nor inactive); the mix of calls is not that of the screen. Calls come from the whole dose curve; as a rule, active = well fitted curve in the direction sought with a large enough effect in the signal ratio (not every such curve was filed as active); inconclusive = small, poorly fitted or top-dose-only effect, or a change in a side signal; inactive = flat fitted curve, though single readings scatter; the % refers to the signal ratio. Potencies of inconclusive entries are doubtful fits and often do not repeat.
# Experiment: IkB Signaling;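 for IkBa stabilization activation: 0% = basal untreated cells and 100% = reference inhibitor full response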
# Conditions: ABC-DLBCL IkBa-CBG/CBR dual luciferase ratio (green luciferase fused to IkBa over red control in OCI-Ly3 lymphoma cells), 4 h, scaled: untreated 0%
# Outline: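 Curves were fitted separately to fusion (green), unfused (red) and ratio luminescence, then classed by r2, magnitude and activity. Cells: OCI-Ly3, 4 h compound plus doxycycline at 37C; 10 uM MG-132 defined full response.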
# [1] = IkBa stabilization activation: at 57.1 µM (top of the series), proteasome inhibitor 100% unless noted
# Potency is the fitted concentration of half-maximal effect.
smiles,measurement,setting,value
Cc1ccc(S(=O)(=O)c2nnn3c2nc(N2CCC(C)CC2)c2cc(Cl)ccc23)cc1C,IkBa stabilization activation,[1],inconclusive: 0.186% [signal inhibitor]
COc1ccc(NC(=O)c2ccc3c(c2)n(C)c(=O)n3C)cc1,Potency,[1],"inconclusive: 20 µM [rising, partial curve]"
Cc1nn2c(=O)cc(COC(=O)c3ccc(NC(=O)COc4ccc(Cl)cc4)cc3)nc2s1,IkBa stabilization activation,[1],inconclusive: 2.81% [signal inhibitor]
Cc1ccccc1Nc1c(-c2c[nH]c3ccccc23)nc2ccccn12,Potency,[1],"inconclusive: 2.51 µM [signal inhibitor, partial curve]"
Cc1ccc(-c2csc(=S)n2CC(=O)OCC(=O)NCc2ccco2)cc1,IkBa stabilization activation,[1],inconclusive: 12% [signal inhibitor]
CCOc1ccc(CCNc2ncnc3onc(-c4ccc(Cl)cc4)c23)cc1,IkBa stabilization activation,[1],inconclusive: 3.03% [signal inhibitor]
CCCCOC(=O)Nc1ccc(N2CCCCC2)cc1,IkBa stabilization activation,[1],inactive
CC(C)(C)OC(=O)N1CCC(c2nnc(SCc3ccccc3F)o2)CC1,IkBa stabilization activation,[1],inactive
O=C(Cn1nnc2sc(-c3ccccc3)cc2c1=O)Nc1cccc(C(F)(F)F)c1,IkBa stabilization activation,[1],inconclusive: 0.425% [signal inhibitor]
O=c1c2oc3ccccc3c2n(Cc2ccccc2)c(=O)n1Cc1ccco1,IkBa stabilization activation,[1],inconclusive: -1.38% [signal inhibitor]
C[C@@H]1O[C@H](O[C@@H]2\C=C/C=C\C=C/C=C\C[C@H](C)OC(=O)/C=C\[C@H]3O[C@@H]3C[C@H](O)C[C@]3(O)C[C@@H](O)[C@@H](C(=O)O)[C@H](C2)O3)[C@@H](O)[C@H](N)[C@@H]1O (stereo in doubt),IkBa stabilization activation,[1],inactive
N=c1oc2c3c4c(cc2cc1C(=O)Nc1ccccc1)CCCN4CCC3,IkBa stabilization activation,[1],inconclusive: 8.71% [signal inhibitor]
COc1ccc(NC(=O)c2ccc(NC(=O)CCS(=O)(=O)c3cccs3)cc2)cc1OC,IkBa stabilization activation,[1],inconclusive: 4.6% [signal inhibitor]
COCCn1nnnc1C(c1cc2cccc(C)c2[nH]c1=O)N1CCN(c2ccccc2F)CC1 (configuration not stated),IkBa stabilization activation,[1],inconclusive: 4.2% [signal inhibitor]
CCCCCn1c(CCCNC(=O)c2cccc(C)c2)nc2ccccc21,IkBa stabilization activation,[1],inconclusive: -1.58% [signal inhibitor]
O=C(COC(=O)Cc1cn2ccsc2n1)NC12CC3CC(CC(C3)C1)C2,IkBa stabilization activation,[1],inactive
CCn1c(NCc2ccc(OC)c(OC)c2)nc2ccccc21,IkBa stabilization activation,[1],inconclusive: 0.962% [signal inhibitor]
CCOc1ccccc1CNC(=O)c1ccc2c(c1)sc1nc(-c3ccccc3)cn12,IkBa stabilization activation,[1],inconclusive: -1.65% [signal inhibitor]
Cc1ccc(Cl)cc1N1CCN(CCCNc2ncnc3onc(-c4ccc(Cl)cc4)c23)CC1,IkBa stabilization activation,[1],inconclusive: -0.551% [signal inhibitor]
CC1CCCN(c2ccc(C(=O)NCc3cccs3)cn2)C1 (configuration not stated),IkBa stabilization activation,[1],inactive
COc1ccc(CNC(=O)c2cnc(N3CCCC3)nc2C)c(OC)c1,IkBa stabilization activation,[1],inactive
COc1ccccc1CNC(=O)C(NS(=O)(=O)c1ccc2c(c1)CCN2C(C)=O)C(C)C (configuration not stated),IkBa stabilization activation,[1],inactive
CC(C)CCNC(=O)NC(=O)COc1ccccc1C#N,IkBa stabilization activation,[1],inconclusive: 12% [signal inhibitor]
COc1ccc(C2=NS(=O)(=O)N(C)C(C(=O)NC(C)c3ccccc3)=C2)cc1 (configuration not stated),IkBa stabilization activation,[1],inconclusive: 5.64% [signal inhibitor]
CCC(C)(C)n1nnnc1CN(Cc1cccs1)Cc1cc2cc(OC)ccc2[nH]c1=O,IkBa stabilization activation,[1],inconclusive: 4.03% [signal inhibitor]
Cc1ccc2oc(C(=O)Nc3ccc(S(=O)(=O)N4CCCCC4C)cc3)cc(=O)c2c1 (configuration not stated),IkBa stabilization activation,[1],inactive
O=C(c1ccco1)N1CCN(c2nc(C3CC3)nc3sc4c(c23)CCCC4)CC1,IkBa stabilization activation,[1],inconclusive: -1.05% [signal inhibitor]
CCN(C(=O)CSc1nc2ccccc2n1CC(=O)N(C)C1CCCCC1)c1ccccc1,IkBa stabilization activation,[1],inconclusive: 2.07% [signal inhibitor]
CCOC(=O)c1cc(-c2ccccc2)n(CCC(=O)NCCc2ccccc2)c1C,IkBa stabilization activation,[1],inactive
Cc1ccc(S(=O)(=O)N(C)CCCC(=O)NCc2ccc3c(c2)OCO3)cc1,Potency,[1],"inconclusive: 20 µM [signal inhibitor, partial curve]"
CCc1ccc(C(=O)c2cn(CC(=O)Nc3cc(OC)ccc3OC)c3ccc(Cl)cc3c2=O)cc1,IkBa stabilization activation,[1],inconclusive: 2.7% [signal inhibitor]
COc1ccc(-c2cc3nc(C)c(CCC(=O)N4CCCCC4)c(C)n3n2)c(OC)c1,Potency,[1],"inconclusive: 1.26 µM [signal inhibitor, full curve]"
Cc1nn(-c2ccccn2)c2nc(-c3cccs3)cc(C(=O)N3CCOCC3)c12,IkBa stabilization activation,[1],inactive
CCc1c(C)sc2c1CCN(Cc1ccccc1C#N)C2c1ccccc1 (configuration not stated),IkBa stabilization activation,[1],inconclusive: 0.8% [signal inhibitor]
CC1CCN(c2oc(-c3cccs3)nc2S(=O)(=O)c2ccccc2)CC1,IkBa stabilization activation,[1],inconclusive: 4.13% [signal inhibitor]
NCCNS(=O)(=O)c1cccc2cnccc12,IkBa stabilization activation,[1],inconclusive: -1.05% [signal inhibitor]
same,IkBa stabilization activation,"at 57.1 µM (top of the series), proteasome inhibitor 100%",inactive: 3.24%
C=CCn1c(-c2cccs2)nc2nc3ccccc3nc21,IkBa stabilization activation,[1],inactive
COc1ccc(-n2cc(-c3ccc4c(c3)OCO4)n(CC(=O)Nc3cc(Cl)ccc3C)c2=O)cc1,Potency,[1],"inconclusive: 15.8 µM [rising, partial curve]"
CN(C)C(=O)CCc1nc(-c2ccc(C(C)(C)C)cc2)no1,IkBa stabilization activation,[1],inactive
Cc1cc(OCC(=O)N2CCC(c3nc4ccccc4s3)CC2)ccc1Cl,IkBa stabilization activation,[1],inconclusive: -0.562% [signal inhibitor]
O=C(CSc1ncc(-c2ccccc2)[nH]1)Nc1cccc(Br)c1,IkBa stabilization activation,[1],inconclusive: -5.07% [signal inhibitor]
NC(=O)[C@@H]1CCCN1Cc1ccc2c(c1)OCO2,IkBa stabilization activation,[1],"inactive: -0.568% [at 11.4 µM, scaled: untreated 0%, proteasome inhibitor 100%]"
O=C(Nc1ccc(F)cc1F)N1CCN(c2ncccn2)CC1,IkBa stabilization activation,[1],inconclusive: 15.8% [signal inhibitor]
Cc1csc(NC(=O)CSc2nc(C)nc3c2c(=O)n(C)c(=O)n3C)n1,IkBa stabilization activation,[1],inactive
CCOCCc1nnc(NC(=O)C(=O)c2cc(C)n(-c3ccc(Cl)cc3)c2C)s1,IkBa stabilization activation,[1],inconclusive: 1.41% [signal inhibitor]
COc1cccc(NC(=O)c2ccc(CN3CCN(c4ccccc4)CC3)cc2)c1,IkBa stabilization activation,[1],inconclusive: 9.25% [signal inhibitor]
Cc1ccc(S(=O)(=O)c2cnc(SCC(=O)Nc3ccc4c(c3)OCCO4)[nH]c2=O)cc1C,IkBa stabilization activation,[1],inconclusive: 0.849% [signal inhibitor]
COc1cc2nc(NC(=O)c3ccc(S(=O)(=O)N4CCc5ccccc54)cc3)sc2cc1OC,IkBa stabilization activation,[1],inconclusive: 7.26% [signal inhibitor]
CC1CCCCN1C(=O)c1ccc2c(c1)N(Cc1ccc(F)cc1)C(=O)c1ccccc1S2(=O)=O (configuration not stated),IkBa stabilization activation,[1],inconclusive: 1.72% [signal inhibitor]
CCN(CCCNC(=O)c1cc2c(=O)n(CC)c3ccccc3c2s1)Cc1ccccc1,IkBa stabilization activation,[1],inconclusive: 1.79% [signal inhibitor]
CCOC(=O)c1c(C)[nH]c(C(C)=O)c1C,IkBa stabilization activation,[1],inactive
C=C(C)COc1ccc(-c2[nH]ncc2Oc2ccccc2OCC)c(O)c1,IkBa stabilization activation,[1],inconclusive: -4.11% [signal inhibitor]
CCNc1ncc2nc(-c3ccccc3)c(=O)n(CCc3ccccc3)c2n1,IkBa stabilization activation,[1],"inactive: -3.4% [at 11.4 µM, scaled: untreated 0%, proteasome inhibitor 100%]"
O=C(Nc1ccc(S(=O)(=O)N2CCCCCC2)cc1)c1ccc(Br)o1,IkBa stabilization activation,[1],inconclusive: 8.85% [signal inhibitor]
CN(Cc1ccco1)c1ncnc2ccc(-c3ccccc3C#N)cc12,IkBa stabilization activation,[1],"inactive: -2.71% [at 11.4 µM, scaled: untreated 0%, proteasome inhibitor 100%]"
CCOC(=O)c1ccc(NC(=O)N2CC3CCCN3c3ccccc32)cc1 (configuration not stated),IkBa stabilization activation,[1],inconclusive: 7.66% [signal inhibitor]
COc1ccc2nc(NC(=O)C3CCCN(S(=O)(=O)c4cccc5nonc45)C3)sc2c1 (configuration not stated),IkBa stabilization activation,[1],inconclusive: 1.09% [signal inhibitor]
Cc1ccc2nc(-c3cccs3)c(Nc3ccc4c(c3)OCCO4)n2c1,IkBa stabilization activation,[1],inconclusive: -2.16% [signal inhibitor]
CC1=CC2=C(OC1N(C)C)c1cccc3cccc(c13)C2=O (configuration not stated),Potency,[1],"inconclusive: 31.6 µM [signal inhibitor, partial curve]"
CCOC(=O)c1c(NC(=O)CSc2nnc(CNc3ccc(F)cc3)o2)sc(C(C)=O)c1C,IkBa stabilization activation,[1],inconclusive: 3.78% [signal inhibitor]
O=C(Cn1cc(C(=O)c2ccco2)c2ccccc21)Nc1ccccc1,IkBa stabilization activation,[1],inconclusive: -5.08% [signal inhibitor]
CCOc1ccc(N2CC(C)Cn3c2nc2c3c(=O)n(Cc3c(F)cccc3Cl)c(=O)n2C)cc1 (configuration not stated),IkBa stabilization activation,[1],inactive
CCOc1ccc(NC(=O)c2ccc(F)c(S(=O)(=O)N(Cc3ccc(C(=O)OC)cc3)Cc3ccc(OC)c(OC)c3)c2)cc1,IkBa stabilization activation,[1],inconclusive: 0.527% [signal inhibitor]
CCOc1cc(C2C(C#N)=C(N)OC(C)=C2C(C)=O)cc(Br)c1O (configuration not stated),IkBa stabilization activation,[1],inconclusive: 6.19% [signal inhibitor]
CC1CCc2nc(NC(=O)Cc3cccs3)sc2C1 (configuration not stated),IkBa stabilization activation,[1],inconclusive: 6.9% [signal inhibitor]
COc1ccc(Cl)cc1Nc1ccc2cc(S(=O)(=O)N3CCCCC3)ccc2n1,IkBa stabilization activation,[1],inactive
